# Test results as given in the supplement of paper PMC8728848.
# The list shows a part of the results.
# Experiments:
# Assay in all cases: glycan array binding signal (z-score within array); higher = stronger binding
# Settings in all cases: glycan notation: IUPAC condensed, linker removed
# [1] = biological target: Neu5Ac(a2-3)Gal(b1-4)GlcNAc(b1-6)GalNAc
# Summary of the method: (§1)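 From the Consortium for Functional Glycomics database, 3228 arrays were curated, keeping only those whose protein sequence was available. Binding is given as a within-array Z-score averaged across arrays sharing a protein sequence and across linkers. Negative Z-scores can be read as non-binding.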
# [2] = biological target: Neu5Ac(a2-3)Gal(b1-4)GlcNAc(b1-6)[Gal(b1-3)]GalNAc
# Summary of the method: as §1
# [3] = biological target: Neu5Ac(a2-3)Gal(b1-4)GlcNAc(b1-6)[Neu5Ac(a2-3)Gal(b1-3)]GalNAc
# Summary of the method: as §1
# [4] = biological target: Neu5Ac(a2-3)Gal(b1-4)GlcNAc6S
# Summary of the method: as §1
# [5] = biological target: Neu5Ac(a2-3)Gal(b1-4)[Fuc(a1-3)]GlcNAc
# Summary of the method: as §1
# [6] = biological target: Neu5Ac(a2-3)Gal(b1-4)[Fuc(a1-3)]GlcNAc(b1-2)Man
# Summary of the method: as §1
# [7] = biological target: Neu5Ac(a2-3)Gal(b1-4)[Fuc(a1-3)]GlcNAc(b1-3)Gal
# Summary of the method: as §1
# [8] = biological target: Neu5Ac(a2-3)Gal(b1-4)[Fuc(a1-3)]GlcNAc(b1-3)Gal(b1-4)GlcNAc
# Summary of the method: as §1
# [9] = biological target: Neu5Ac(a2-3)Gal(b1-4)[Fuc(a1-3)]GlcNAc(b1-3)Gal(b1-4)[Fuc(a1-3)]GlcNAc(b1-3)Gal(b1-4)[Fuc(a1-3)]GlcNAc
# Summary of the method: as §1
# [10] = biological target: Neu5Ac(a2-3)Gal(b1-4)[Fuc(a1-3)]GlcNAc(b1-3)GalNAc
# Summary of the method: as §1
# [11] = biological target: Neu5Ac(a2-3)Gal(b1-4)[Fuc(a1-3)]GlcNAc(b1-6)[Gal(b1-3)]GalNAc
# Summary of the method: as §1
# [12] = biological target: Neu5Ac(a2-3)Gal(b1-4)[Fuc(a1-3)]GlcNAc(b1-6)[Neu5Ac(a2-3)Gal(b1-3)]GalNAc
# Summary of the method: as §1
# [13] = biological target: Neu5Ac(a2-3)Gal(b1-4)[Fuc(a1-3)]GlcNAc6S
# Summary of the method: as §1
# [14] = biological target: Neu5Ac(a2-3)Gal6S(b1-4)GlcNAc
# Summary of the method: as §1
# [15] = biological target: Neu5Ac(a2-3)Gal6S(b1-4)[Fuc(a1-3)]GlcNAc
# Summary of the method: as §1
# [16] = biological target: Neu5Ac(a2-3)GalNAc
# Summary of the method: as §1
# [17] = biological target: Neu5Ac(a2-3)GalNAc(b1-4)GlcNAc
# Summary of the method: as §1
# [18] = biological target: Neu5Ac(a2-3)[GalNAc(b1-4)]Gal(b1-4)Glc
# Summary of the method: as §1
# [19] = biological target: Neu5Ac(a2-3)[GalNAc(b1-4)]Gal(b1-4)GlcNAc
# Summary of the method: as §1
# [20] = biological target: Neu5Ac(a2-3)[GalNAc(b1-4)]Gal(b1-4)GlcNAc(b1-3)GalNAc
# Summary of the method: as §1
# [21] = biological target: Neu5Ac(a2-3)[Neu5Ac(a2-6)]GalNAc
# Summary of the method: as §1
# [22] = biological target: Neu5Ac(a2-6)Gal
# Summary of the method: as §1
# [23] = biological target: Neu5Ac(a2-6)Gal(b1-3)GlcNAc(b1-3)[Gal(b1-4)GlcNAc(b1-6)]Gal(b1-4)Glc
# Summary of the method: as §1
# [24] = biological target: Neu5Ac(a2-6)Gal(b1-4)Glc
# Summary of the method: as §1
# [25] = biological target: Neu5Ac(a2-6)Gal(b1-4)GlcNAc
# Summary of the method: as §1
# [26] = biological target: Neu5Ac(a2-6)Gal(b1-4)GlcNAc(b1-2)Man
# Summary of the method: as §1
# [27] = biological target: Neu5Ac(a2-6)Gal(b1-4)GlcNAc(b1-2)Man(a1-3)Man(b1-4)GlcNAc(b1-4)GlcNAc
# Summary of the method: as §1
# [28] = biological target: Neu5Ac(a2-6)Gal(b1-4)GlcNAc(b1-2)Man(a1-3)[Gal(b1-4)GlcNAc(b1-2)Man(a1-6)]Man(b1-4)GlcNAc(b1-4)GlcNAc
# Summary of the method: as §1
# [29] = biological target: Neu5Ac(a2-6)Gal(b1-4)GlcNAc(b1-2)Man(a1-3)[GlcNAc(b1-2)Man(a1-6)]Man(b1-4)GlcNAc(b1-4)GlcNAc
# Summary of the method: as §1
# [30] = biological target: Neu5Ac(a2-6)Gal(b1-4)GlcNAc(b1-2)Man(a1-3)[GlcNAc(b1-4)][Neu5Ac(a2-6)Gal(b1-4)GlcNAc(b1-2)Man(a1-6)]Man(b1-4)GlcNAc(b1-4)GlcNAc
# Summary of the method: as §1
# [31] = biological target: Neu5Ac(a2-6)Gal(b1-4)GlcNAc(b1-2)Man(a1-3)[Man(a1-6)]Man(b1-4)GlcNAc(b1-4)GlcNAc
# Summary of the method: as §1
# [32] = biological target: Neu5Ac(a2-6)Gal(b1-4)GlcNAc(b1-2)Man(a1-3)[Neu5Ac(a2-3)Gal(b1-4)GlcNAc(b1-2)Man(a1-6)]Man(b1-4)GlcNAc(b1-4)GlcNAc
# Summary of the method: as §1
# [33] = biological target: Neu5Ac(a2-6)Gal(b1-4)GlcNAc(b1-2)Man(a1-3)[Neu5Ac(a2-6)Gal(b1-4)GlcNAc(b1-2)Man(a1-6)]Man(b1-4)GlcNAc(b1-4)GlcNAc
# Summary of the method: as §1
# [34] = biological target: Neu5Ac(a2-6)Gal(b1-4)GlcNAc(b1-2)Man(a1-3)[Neu5Ac(a2-6)Gal(b1-4)GlcNAc(b1-2)Man(a1-6)]Man(b1-4)GlcNAc(b1-4)[Fuc(a1-6)]GlcNAc
# Summary of the method: as §1
# [35] = biological target: Neu5Ac(a2-6)Gal(b1-4)GlcNAc(b1-2)Man(a1-6)Man(b1-4)GlcNAc(b1-4)GlcNAc
# Summary of the method: as §1
# [36] = biological target: Neu5Ac(a2-6)Gal(b1-4)GlcNAc(b1-2)Man(a1-6)[Gal(b1-4)GlcNAc(b1-2)Man(a1-3)]Man(b1-4)GlcNAc(b1-4)GlcNAc
# Summary of the method: as §1
# [37] = biological target: Neu5Ac(a2-6)Gal(b1-4)GlcNAc(b1-2)Man(a1-6)[GlcNAc(b1-2)Man(a1-3)]Man(b1-4)GlcNAc(b1-4)GlcNAc
# Summary of the method: as §1
# [38] = biological target: Neu5Ac(a2-6)Gal(b1-4)GlcNAc(b1-2)Man(a1-6)[Man(a1-3)]Man(b1-4)GlcNAc(b1-4)GlcNAc
# Summary of the method: as §1
# [39] = biological target: Neu5Ac(a2-6)Gal(b1-4)GlcNAc(b1-2)[Neu5Ac(a2-6)Gal(b1-4)GlcNAc(b1-4)]Man(a1-3)[GlcNAc(b1-4)][Neu5Ac(a2-6)Gal(b1-4)GlcNAc(b1-2)[Neu5Ac(a2-6)Gal(b1-4)GlcNAc(b1-6)]Man(a1-6)]Man(b1-4)GlcNAc(b1-4)GlcNAc
# Summary of the method: as §1
# [40] = biological target: Neu5Ac(a2-6)Gal(b1-4)GlcNAc(b1-2)[Neu5Ac(a2-6)Gal(b1-4)GlcNAc(b1-4)]Man(a1-3)[GlcNAc(b1-4)][Neu5Ac(a2-6)Gal(b1-4)GlcNAc(b1-4)Man(a1-6)]Man(b1-4)GlcNAc(b1-4)GlcNAc
# Summary of the method: as §1
# [41] = biological target: Neu5Ac(a2-6)Gal(b1-4)GlcNAc(b1-2)[Neu5Ac(a2-6)Gal(b1-4)GlcNAc(b1-6)]Man(a1-6)[Neu5Ac(a2-6)Gal(b1-4)GlcNAc(b1-2)Man(a1-3)][GlcNAc(b1-4)]Man(b1-4)GlcNAc(b1-4)GlcNAc
# Summary of the method: as §1
# [42] = biological target: Neu5Ac(a2-6)Gal(b1-4)GlcNAc(b1-3)Gal(b1-3)GlcNAc
# Summary of the method: as §1
# [43] = biological target: Neu5Ac(a2-6)Gal(b1-4)GlcNAc(b1-3)Gal(b1-4)GlcNAc
# Summary of the method: as §1
# [44] = biological target: Neu5Ac(a2-6)Gal(b1-4)GlcNAc(b1-3)Gal(b1-4)GlcNAc(b1-2)Man(a1-3)[Neu5Ac(a2-6)Gal(b1-4)GlcNAc(b1-3)Gal(b1-4)GlcNAc(b1-2)Man(a1-6)]GalNAc
# Summary of the method: as §1
# [45] = biological target: Neu5Ac(a2-6)Gal(b1-4)GlcNAc(b1-3)Gal(b1-4)GlcNAc(b1-3)Gal(b1-4)GlcNAc
# Summary of the method: as §1
# [46] = biological target: Neu5Ac(a2-6)Gal(b1-4)GlcNAc(b1-3)Gal(b1-4)GlcNAc(b1-3)Gal(b1-4)GlcNAc(b1-2)Man(a1-3)[Neu5Ac(a2-6)Gal(b1-4)GlcNAc(b1-3)Gal(b1-4)GlcNAc(b1-3)Gal(b1-4)GlcNAc(b1-2)Man(a1-6)]GalNAc
# Summary of the method: as §1
binder,measurement,setting,value
PX14343A-bvu-539-29-539 (Bacteroides vulgatus) (protein) DSLTESSSNTFWQTPDDALMALASCYDALQSNQLYNSDQYSLGPLYMDCISDNGGHFNWSGWMEGYDMAMGIHTPSSSIIGSYWKDCYEVISRCNVLIANIDRVDMDASQKAIYQAEAKTIRALMYINLTMTYQDVPFLTAPLTIDEAECEKTDRAAIVAHVMTDLQDAAEVLPQNASSRGHITKGAALSLLGRVALYNEKWDDAIAAYKQVQGLGYSLDPSYAKLFTQSGETSPEIIFAVRYEGPGMSEGAAFNAHWNTPLEAMNGTIDLADAYYCKDGKPTTDTKIAELNGGGGLDVSKPNPAHFENRDPRLYSTLFVPGMLWNGKGGIDTSASNPYANVYGGAAASLSTVYVYKYFDPTDTSNSWDNGQDFYVVRYAEVLLSLAEAMVQKGGYVYSDVTALVNEVRQRADVNMPTVEEVEGTSLSKDELLEVIKHERRVELAFEGLRLFDLYRWKELDKAVANIENERTMYGLAYEARKFNGERDYVWPLPTAELDTNKKLVQHDLWK,glycan array binding signal (z-score),[1],0.089
same,glycan array binding signal (z-score),[2],-0.019
same,glycan array binding signal (z-score),[3],-0.294
same,glycan array binding signal (z-score),[4],-0.274
same,glycan array binding signal (z-score),[5],-0.418
same,glycan array binding signal (z-score),[6],-0.394
same,glycan array binding signal (z-score),[7],-0.206
same,glycan array binding signal (z-score),[8],-0.125
same,glycan array binding signal (z-score),[9],-0.377
same,glycan array binding signal (z-score),[10],0.081
same,glycan array binding signal (z-score),[11],-0.24
same,glycan array binding signal (z-score),[12],-0.331
same,glycan array binding signal (z-score),[13],-0.063
same,glycan array binding signal (z-score),[14],-0.08
same,glycan array binding signal (z-score),[15],-0.337
same,glycan array binding signal (z-score),[16],-0.487
same,glycan array binding signal (z-score),[17],-0.142
same,glycan array binding signal (z-score),[18],-0.311
same,glycan array binding signal (z-score),[19],-0.227
same,glycan array binding signal (z-score),[20],-0.351
same,glycan array binding signal (z-score),[21],-0.379
same,glycan array binding signal (z-score),[22],0.087
same,glycan array binding signal (z-score),[23],-0.319
same,glycan array binding signal (z-score),[24],-0.177
same,glycan array binding signal (z-score),[25],-0.03
same,glycan array binding signal (z-score),[26],-0.173
same,glycan array binding signal (z-score),[27],-0.254
same,glycan array binding signal (z-score),[28],0.601
same,glycan array binding signal (z-score),[29],-0.315
same,glycan array binding signal (z-score),[30],0.041
same,glycan array binding signal (z-score),[31],-0.347
same,glycan array binding signal (z-score),[32],-0.208
same,glycan array binding signal (z-score),[33],-0.234
same,glycan array binding signal (z-score),[34],0.105
same,glycan array binding signal (z-score),[35],0.357
same,glycan array binding signal (z-score),[36],-0.214
same,glycan array binding signal (z-score),[37],-0.215
same,glycan array binding signal (z-score),[38],-0.336
same,glycan array binding signal (z-score),[39],-0.133
same,glycan array binding signal (z-score),[40],0.349
same,glycan array binding signal (z-score),[41],-0.352
same,glycan array binding signal (z-score),[42],-0.135
same,glycan array binding signal (z-score),[43],-0.413
same,glycan array binding signal (z-score),[44],-0.266
same,glycan array binding signal (z-score),[45],-0.181
same,glycan array binding signal (z-score),[46],0.481
